{"source": "the supplement of paper PMC11876631", "proteins": {"B1": {"name": "fabB V185A (protein)", "chain": "MKRAVITGLGIVSSIGNNQQEVLASLREGRSGITFSQELKDSGMRSHVWGNVKLDTTGLIDRKVVRFMSDASIYAFLSMEQAIADAGLSPEAYQNNPRVGLIAGSGGGSPRFQVFGADAMRGPRGLKAVGPYVVTKAMASGVSACLATPFKIHGVNYSISSACATSAHCIGNAVEQIQLGKQDIAFAGGGEELCWEMACEFDAMGALSTKYNDTPEKASRTYDAHRDGFVIAGGGGMVVVEELEHALARGAHIYAEIVGYGATSDGADMVAPSGEGAVRCMKMAMHGVDTPIDYLNSHGTSTPVGDVKELAAIREVFGDKSPAISATKAMTGHSLGAAGVQEAIYSLLMLEHGFIAPSINIEELDEQAAGLNIVTETTDRELTTVMSNSFGFGGTNATLVMRKLKD"}, "B2": {"name": "fabB V185W (protein)", "chain": "MKRAVITGLGIVSSIGNNQQEVLASLREGRSGITFSQELKDSGMRSHVWGNVKLDTTGLIDRKVVRFMSDASIYAFLSMEQAIADAGLSPEAYQNNPRVGLIAGSGGGSPRFQVFGADAMRGPRGLKAVGPYVVTKAMASGVSACLATPFKIHGVNYSISSACATSAHCIGNAVEQIQLGKQDIWFAGGGEELCWEMACEFDAMGALSTKYNDTPEKASRTYDAHRDGFVIAGGGGMVVVEELEHALARGAHIYAEIVGYGATSDGADMVAPSGEGAVRCMKMAMHGVDTPIDYLNSHGTSTPVGDVKELAAIREVFGDKSPAISATKAMTGHSLGAAGVQEAIYSLLMLEHGFIAPSINIEELDEQAAGLNIVTETTDRELTTVMSNSFGFGGTNATLVMRKLKD"}, "B3": {"name": "accA V196W (protein)", "chain": "MSLNFLDFEQPIAELEAKIDSLTAVSRQDEKLDINIDEEVHRLREKSVELTRKIFADLGAWQIAQLARHPQRPYTLDYVRLAFDEFDELAGDRAYADDKAIVGGIARLDGRPVMIIGHQKGRETKEKIRRNFGMPAPEGYRKALRLMQMAERFKMPIITFIDTPGAYPGVGAEERGQSEAIARNLREMSRLGVPVWCTVIGEGGSGGALAIGVGDKVNMLQYSTYSVISPEGCASILWKSADKAPLAAEAMGIIAPRLKELKLIDSIIPEPLGGAHRNPEAMAASLKAQLLADLADLDVLSTEDLKNRRYQRLMSYGYA"}, "B4": {"name": "fabB V185Q (protein)", "chain": "MKRAVITGLGIVSSIGNNQQEVLASLREGRSGITFSQELKDSGMRSHVWGNVKLDTTGLIDRKVVRFMSDASIYAFLSMEQAIADAGLSPEAYQNNPRVGLIAGSGGGSPRFQVFGADAMRGPRGLKAVGPYVVTKAMASGVSACLATPFKIHGVNYSISSACATSAHCIGNAVEQIQLGKQDIQFAGGGEELCWEMACEFDAMGALSTKYNDTPEKASRTYDAHRDGFVIAGGGGMVVVEELEHALARGAHIYAEIVGYGATSDGADMVAPSGEGAVRCMKMAMHGVDTPIDYLNSHGTSTPVGDVKELAAIREVFGDKSPAISATKAMTGHSLGAAGVQEAIYSLLMLEHGFIAPSINIEELDEQAAGLNIVTETTDRELTTVMSNSFGFGGTNATLVMRKLKD"}, "B5": {"name": "fabB V185D (protein)", "chain": "MKRAVITGLGIVSSIGNNQQEVLASLREGRSGITFSQELKDSGMRSHVWGNVKLDTTGLIDRKVVRFMSDASIYAFLSMEQAIADAGLSPEAYQNNPRVGLIAGSGGGSPRFQVFGADAMRGPRGLKAVGPYVVTKAMASGVSACLATPFKIHGVNYSISSACATSAHCIGNAVEQIQLGKQDIDFAGGGEELCWEMACEFDAMGALSTKYNDTPEKASRTYDAHRDGFVIAGGGGMVVVEELEHALARGAHIYAEIVGYGATSDGADMVAPSGEGAVRCMKMAMHGVDTPIDYLNSHGTSTPVGDVKELAAIREVFGDKSPAISATKAMTGHSLGAAGVQEAIYSLLMLEHGFIAPSINIEELDEQAAGLNIVTETTDRELTTVMSNSFGFGGTNATLVMRKLKD"}, "B6": {"name": "fabB V185P (protein)", "chain": "MKRAVITGLGIVSSIGNNQQEVLASLREGRSGITFSQELKDSGMRSHVWGNVKLDTTGLIDRKVVRFMSDASIYAFLSMEQAIADAGLSPEAYQNNPRVGLIAGSGGGSPRFQVFGADAMRGPRGLKAVGPYVVTKAMASGVSACLATPFKIHGVNYSISSACATSAHCIGNAVEQIQLGKQDIPFAGGGEELCWEMACEFDAMGALSTKYNDTPEKASRTYDAHRDGFVIAGGGGMVVVEELEHALARGAHIYAEIVGYGATSDGADMVAPSGEGAVRCMKMAMHGVDTPIDYLNSHGTSTPVGDVKELAAIREVFGDKSPAISATKAMTGHSLGAAGVQEAIYSLLMLEHGFIAPSINIEELDEQAAGLNIVTETTDRELTTVMSNSFGFGGTNATLVMRKLKD"}, "B7": {"name": "fabB F186A (protein)", "chain": "MKRAVITGLGIVSSIGNNQQEVLASLREGRSGITFSQELKDSGMRSHVWGNVKLDTTGLIDRKVVRFMSDASIYAFLSMEQAIADAGLSPEAYQNNPRVGLIAGSGGGSPRFQVFGADAMRGPRGLKAVGPYVVTKAMASGVSACLATPFKIHGVNYSISSACATSAHCIGNAVEQIQLGKQDIVAAGGGEELCWEMACEFDAMGALSTKYNDTPEKASRTYDAHRDGFVIAGGGGMVVVEELEHALARGAHIYAEIVGYGATSDGADMVAPSGEGAVRCMKMAMHGVDTPIDYLNSHGTSTPVGDVKELAAIREVFGDKSPAISATKAMTGHSLGAAGVQEAIYSLLMLEHGFIAPSINIEELDEQAAGLNIVTETTDRELTTVMSNSFGFGGTNATLVMRKLKD"}, "B8": {"name": "fabB F186W (protein)", "chain": "MKRAVITGLGIVSSIGNNQQEVLASLREGRSGITFSQELKDSGMRSHVWGNVKLDTTGLIDRKVVRFMSDASIYAFLSMEQAIADAGLSPEAYQNNPRVGLIAGSGGGSPRFQVFGADAMRGPRGLKAVGPYVVTKAMASGVSACLATPFKIHGVNYSISSACATSAHCIGNAVEQIQLGKQDIVWAGGGEELCWEMACEFDAMGALSTKYNDTPEKASRTYDAHRDGFVIAGGGGMVVVEELEHALARGAHIYAEIVGYGATSDGADMVAPSGEGAVRCMKMAMHGVDTPIDYLNSHGTSTPVGDVKELAAIREVFGDKSPAISATKAMTGHSLGAAGVQEAIYSLLMLEHGFIAPSINIEELDEQAAGLNIVTETTDRELTTVMSNSFGFGGTNATLVMRKLKD"}, "B9": {"name": "fabB F186Q (protein)", "chain": "MKRAVITGLGIVSSIGNNQQEVLASLREGRSGITFSQELKDSGMRSHVWGNVKLDTTGLIDRKVVRFMSDASIYAFLSMEQAIADAGLSPEAYQNNPRVGLIAGSGGGSPRFQVFGADAMRGPRGLKAVGPYVVTKAMASGVSACLATPFKIHGVNYSISSACATSAHCIGNAVEQIQLGKQDIVQAGGGEELCWEMACEFDAMGALSTKYNDTPEKASRTYDAHRDGFVIAGGGGMVVVEELEHALARGAHIYAEIVGYGATSDGADMVAPSGEGAVRCMKMAMHGVDTPIDYLNSHGTSTPVGDVKELAAIREVFGDKSPAISATKAMTGHSLGAAGVQEAIYSLLMLEHGFIAPSINIEELDEQAAGLNIVTETTDRELTTVMSNSFGFGGTNATLVMRKLKD"}, "B10": {"name": "fabB F186D (protein)", "chain": "MKRAVITGLGIVSSIGNNQQEVLASLREGRSGITFSQELKDSGMRSHVWGNVKLDTTGLIDRKVVRFMSDASIYAFLSMEQAIADAGLSPEAYQNNPRVGLIAGSGGGSPRFQVFGADAMRGPRGLKAVGPYVVTKAMASGVSACLATPFKIHGVNYSISSACATSAHCIGNAVEQIQLGKQDIVDAGGGEELCWEMACEFDAMGALSTKYNDTPEKASRTYDAHRDGFVIAGGGGMVVVEELEHALARGAHIYAEIVGYGATSDGADMVAPSGEGAVRCMKMAMHGVDTPIDYLNSHGTSTPVGDVKELAAIREVFGDKSPAISATKAMTGHSLGAAGVQEAIYSLLMLEHGFIAPSINIEELDEQAAGLNIVTETTDRELTTVMSNSFGFGGTNATLVMRKLKD"}, "B11": {"name": "argA M439A (protein)", "chain": "MVKERKTELVEGFRHSVPYINTHRGKTFVIMLGGEAIEHENFSSIVNDIGLLHSLGIRLVVVYGARPQIDANLAAHHHEPLYHKNIRVTDAKTLELVKQAAGTLQLDITARLSMSLNNTPLQGAHINVVSGNFIIAQPLGVDDGVDYCHSGRIRRIDEDAIHRQLDSGAIVLMGPVAVSVTGESFNLTSEEIATQLAIKLKAEKMIGFCSSQGVTNDDGDIVSELFPNEAQARVEAQEEKGDYNSGTVRFLRGAVKACRSGVRRCHLISYQEDGALLQELFSRDGIGTQIVMESAEQIRRATINDIGGILELIRPLEQQGILVRRSREQLEMEIDKFTIIQRDNTTIACAALYPFPEEKIGEMACVAVHPDYRSSSRGEVLLERIAAQAKQSGLSKLFVLTTRSIHWFQERGFTPVDIDLLPESKKQLYNYQRKSKVLAADLG"}, "B12": {"name": "fabD M88D (protein)", "chain": "MTQFAFVFPGQGSQTVGMLADMAASYPIVEETFAEASAALGYDLWALTQQGPAEELNKTWQTQPALLTASVALYRVWQQQGGKAPAMDAGHSLGEYSALVCAGVIDFADAVRLVEMRGKFMQEAVPEGTGAMAAIIGLDDASIAKACEEAAEGQVVSPVNFNSPGQVVIAGHKEAVERAGAACKAAGAKRALPLPVSVPSHCALMKPAADKLAVELAKITFNAPTVPVVNNVDVKCETNGDAIRDALVRQLYNPVQWTKSVEYMAAQGVEHLYEVGPGKVLTGLTKRIVDTLTASALNEPSAMAAALEL"}}, "note": "± gives the standard deviation of the averaged measurements. Laboratory Escherichia coli strains with one amino-acid change in an essential protein, pooled on minimal glucose agar with carbenicillin or gentamicin at twice the control MIC (plus kanamycin and chloramphenicol for the plasmids), 48 h. Fold change of barcode share against drug-free plates; higher = less susceptible. Active = above 20 in both replicates (the paper's putatively resistant). '<' = one read or none on drug, '>' = one read or none on a drug-free plate. Shares are relative, so most strains fall below 1 when a few take over. Listed are strains with at least 15 reads on both drug-free plates, and hits; most hits rest on fewer reference reads. Replicate rank correlation about 0.5. Edits are read from barcodes."}
{"target": "Escherichia coli (laboratory strain)", "assay": "barcode share on antibiotic plates over drug-free plates; higher = less susceptible", "settings": "antibiotic: carbenicillin; 2× MIC (3.1 µg/mL)", "method": "(§1)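 A pool of E. coli strains, each edited to carry one amino-acid change in an essential protein, was grown for 48 h on minimal glucose agar with or without antibiotic; strain barcodes were sequenced; mean of two replicates.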"}
{"protein": "B1", "fold change of barcode share": "0.558 ± 0.48"}
{"protein": "B2", "fold change of barcode share": "0.327 ± 0.19"}
{"protein": "B3", "fold change of barcode share": "0.255 ± 0.037"}
{"protein": "B4", "fold change of barcode share": "0.296 ± 0.1"}
{"protein": "B5", "fold change of barcode share": "0.188 ± 0.067"}
{"protein": "B6", "fold change of barcode share": "0.124 ± 0.052"}
{"protein": "B7", "fold change of barcode share": "0.519 ± 0.53"}
{"protein": "B8", "fold change of barcode share": "0.312 ± 0.28"}
{"protein": "B9", "fold change of barcode share": "0.332 ± 0.28"}
{"protein": "B10", "fold change of barcode share": "0.172 ± 0.0097"}
{"protein": "B11", "fold change of barcode share": "0.672 ± 0.35"}
{"protein": "B12", "fold change of barcode share": "0.636 ± 0.5"}
{"target": "Escherichia coli (laboratory strain)", "assay": "barcode share on antibiotic plates over drug-free plates; higher = less susceptible", "settings": "antibiotic: gentamicin; 2× MIC (MIC 0.45 µg/mL)", "method": "as §1"}
{"protein": "B1", "fold change of barcode share": "< 0.00813"}
{"protein": "B2", "fold change of barcode share": "< 0.00557"}
{"protein": "B3", "fold change of barcode share": "0.00768 ± 0.0067"}
{"protein": "B4", "fold change of barcode share": "< 0.00759"}
{"protein": "B6", "fold change of barcode share": "< 0.00687"}
{"protein": "B7", "fold change of barcode share": "< 0.00646"}
{"protein": "B8", "fold change of barcode share": "< 0.00457"}
{"protein": "B9", "fold change of barcode share": "< 0.00992"}
{"protein": "B10", "fold change of barcode share": "0.0201 ± 0.011"}
{"protein": "B12", "fold change of barcode share": "< 0.00992"}
